Laboratory results reported in PubChem BioAssay AID1347071 (National Center for Advancing Translational Sciences (NCATS), 2019).
Among all 410,000 compounds or so, about 260 (0.063%) were called active. Inconclusive means that the source gave no clear call. Such entries were picked first, then a sample of the others. Calls come from the whole dose curve; as a rule, active = well fitted activation curve with a large enough effect; inconclusive = small, poorly fitted or top-dose-only effect; inactive = no such curve, though single readings can be large or run the other way. No potency is given beside an inconclusive call; the fits are too rough.

Assay: qHTS for compounds that reverse cellular toxicity of Amyloid beta (A-beta) peptide in yeast: Primary Screen; note: nearly all actives have a fitted effect of over 55% in size
Details: yeast expressing A-beta42, growth rescue, OD600, 48 h; growth rescue: at 46.1 µM (top of the series), 0% DMSO, 100% iron-clioquinol control
Procedure, shortened: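 Yeast growth medium received pinned compounds, then yeast cells expressing toxic A-beta were added; plates incubated at 30 C for 48 hr. Growth read as absorbance at 600 nm, normalized to DMSO and equimolar FeCl3 plus clioquinol controls.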
Potency is the fitted concentration of half-maximal effect; tags give direction and shape of the fitted curve.

Structure (SMILES)	Potency	growth rescue
CN(C(=O)C1CCC1C(=O)O)c1nc(-c2ccc(Cl)s2)cs1 (centres undefined)	inconclusive [activator, single point]	
Nc1ccc(-c2nc3ncccc3o2)c(O)c1	inconclusive [activator, single point]	
O=[N+]([O-])c1cccc2c3c([nH]c12)CCCC3	inconclusive [activator, single point]	
Cc1ccc(N=Cc2cc3c(cc2[N+](=O)[O-])OCO3)cc1[N+](=O)[O-]	inconclusive [activator, partial curve, poor fit]	
Fc1ccc(NC(=S)Nc2ccc(Cl)cc2)cc1	inconclusive [activator, single point]	
O=S1(=O)N[C@H](Cc2ccccc2)COc2cccc(N3CCSCC3)c21	inconclusive [activator, single point]	
CCCCOc1ccccc1C(=O)Nc1nonc1-c1ccccc1		inactive: -19.1%
COc1cc([N+](=O)[O-])ccc1NC(=O)N1CCN(c2cc(-c3noc(C)n3)ccc2C)CC1		inactive: -1.37%
COc1ccc(NC(=O)c2sc3nc(-c4cccnc4)ccc3c2N)cc1		inactive: -8.12%
CCC(CC)C(=O)Nc1nnc(CCc2ccccc2)s1	inconclusive [activator, single point]	
CCCCn1nnc(NC(=O)c2ccc(-c3cccc(Cl)c3)o2)n1		inactive: 2.27%
Cc1ccc2nc(/C(C#N)=C\c3ccc([N+](=O)[O-])o3)[nH]c2c1		inconclusive: -95.9% [activator]
Cc1ccc(S(=O)(=O)/N=C(\N)c2ccc(Cl)cc2)cc1	inconclusive [activator, partial curve, poor fit]	
Cc1ccccc1[C@@]1(C)ON(c2ccccc2C(F)(F)F)C1=O		inactive: -13.1%
Cc1cccc(C)c1N(CC(=O)N1CCN(c2ccccc2F)CC1)S(C)(=O)=O	inconclusive [activator, partial curve]	
O=C(Nc1cccc(S(=O)(=O)N2CCCC2)c1)c1cc(=O)[nH]c2ccccc12	inconclusive [activator, single point]	
COc1ccc(-c2nnc(SCc3csc(N)n3)n2C)cc1		inactive: 3.36%
NC(=O)c1noc(C(=O)N(CC(=O)NC2CCCC2)Cc2ccc3c(c2)OCO3)c1N	inconclusive [activator, full curve]	
Cc1ccc(NC(=S)Nc2ccc(C(C)C)cc2)cc1S(=O)(=O)N1CCCCCC1	inconclusive [activator, single point]	
O=C(CSCc1cccc(Br)c1)N/N=C/c1ccc2c(c1)OCO2	inconclusive [activator, full curve, poor fit]	
CCc1ccc(C(O)c2ncc(-c3ccccc3F)[nH]2)cc1 (centres undefined)	inconclusive [activator, partial curve, poor fit]	
Cc1cccc(NC(=O)CSc2nccn2-c2cccc(Cl)c2)c1C	inconclusive [activator, single point]	

Structure (SMILES)	Potency	growth rescue
CCOc1ccc(N2CSC(=S)N(c3ccc(OCC)cc3)C2)cc1	inconclusive [activator, partial curve, poor fit]	
S=c1[nH]nc(-c2ccc(Cl)cc2)n1/N=C/c1ccco1	inconclusive [activator, partial curve, poor fit]	
C=CCn1c(C23CC4CC(CC(C4)C2)C3)n[nH]c1=S	inconclusive [activator, full curve, poor fit]	
COc1cccc(Cn2c(NCc3ccc(C)cc3)nc3c2c(=O)n(C)c(=O)n3C)c1		inactive: -8.82%
C[C@@H]1Cc2[nH][nH]c(=O)c2[C@H](c2ccc(Cl)cc2)O1		inactive: 8.72%
Cc1cccc(NC(=O)C2CCN(S(=O)(=O)c3c(C)nn(C)c3C)CC2)n1		inactive: 5.83%
C[C@@]12C(=O)Nc3ccc(Cl)cc3C(=O)N1[C@H]1c3cc(Cl)ccc3OC[C@@H]1[C@@H]2c1ccccc1	inconclusive [activator, partial curve]	
COc1ccc(C(=O)NCC(=O)OCC(=O)c2ccccc2Br)cc1OC		inactive: -2.56%
CC(C)Oc1ccc(C(=O)O)c(C(=O)O)c1		inactive: -0.0074%
Cc1ccc(NC(=O)c2sc3ncnc(N4CCN(c5ccccn5)CC4)c3c2C)c(C)c1		inactive: 3.15%
COc1ccc(CNC(=S)Nc2ccccc2)cc1	inconclusive [activator, single point]	
Cc1ccccc1NC(=S)N(Cc1ccco1)C(C)c1ccccn1 (centres undefined)	inconclusive [activator, partial curve, poor fit]	
O=C(Cn1c2c(sc1=O)C1c3ccccc3OCC1CS2)Nc1ccc(Cl)c(Cl)c1 (centres undefined)	inconclusive [activator, partial curve, poor fit]	
COc1ccc(N2CCC(CNC(=S)Nc3ccc(C)cc3C)C2)cc1 (centres undefined)	active: 22.4 µM	
CCOc1ccc2nc(N=NC3=C(O)CC(C)(C)CC3=O)sc2c1	inconclusive [activator, full curve, poor fit]	
S=c1[nH]nc(-c2ccc(Cl)cc2Cl)n1-c1ccc(Cl)cc1	inconclusive [activator, partial curve, poor fit]	
COc1ccc(C2c3c(n(C)c4ccccc34)C(=O)N2CC(=O)Nc2ccccc2F)cc1 (centres undefined)	inconclusive [activator, single point]	
Cc1cccc(OCCNC(=O)CCNS(=O)(=O)c2ccc3ccccc3c2)c1	inconclusive [activator, partial curve]	
CCNc1ccc(-c2nc(-c3ccco3)no2)cc1[N+](=O)[O-]		inactive: -10.6%
CC1(C)c2[nH]c3ccccc3c2C[C@@H]2C(=O)N(Cc3ccccc3)C(=O)N21	inconclusive [activator, single point]	
Cc1cc(S(=O)(=O)c2ccc(Cl)cc2)nc(S(=O)(=O)c2ccc(Cl)cc2)c1C#N		inactive: -80.7%
CCOc1cc(C(c2c(C)[nH][nH]c2=O)c2c(C)[nH][nH]c2=O)ccc1OCc1ccc([N+](=O)[O-])cc1	inconclusive [activator, full curve, poor fit]	
